Assay results reported in PMC4336329 (PLoS ONE, 2015).
Out of some 310,000 compounds screened, about 2,200 (0.71%) showed an effect of 50% or more. The effect is printed as a negative number. The list shows a part of the results.

Target: human ether-à-go-go-related gene (hERG) potassium channel (human, UniProt Q12809)
Assay: primary screen, population patch clamp on CHO cells stably expressing hERG

human ether-à-go-go-related gene (hERG) potassium channel, sequence (Q12809 whole entry, looked up): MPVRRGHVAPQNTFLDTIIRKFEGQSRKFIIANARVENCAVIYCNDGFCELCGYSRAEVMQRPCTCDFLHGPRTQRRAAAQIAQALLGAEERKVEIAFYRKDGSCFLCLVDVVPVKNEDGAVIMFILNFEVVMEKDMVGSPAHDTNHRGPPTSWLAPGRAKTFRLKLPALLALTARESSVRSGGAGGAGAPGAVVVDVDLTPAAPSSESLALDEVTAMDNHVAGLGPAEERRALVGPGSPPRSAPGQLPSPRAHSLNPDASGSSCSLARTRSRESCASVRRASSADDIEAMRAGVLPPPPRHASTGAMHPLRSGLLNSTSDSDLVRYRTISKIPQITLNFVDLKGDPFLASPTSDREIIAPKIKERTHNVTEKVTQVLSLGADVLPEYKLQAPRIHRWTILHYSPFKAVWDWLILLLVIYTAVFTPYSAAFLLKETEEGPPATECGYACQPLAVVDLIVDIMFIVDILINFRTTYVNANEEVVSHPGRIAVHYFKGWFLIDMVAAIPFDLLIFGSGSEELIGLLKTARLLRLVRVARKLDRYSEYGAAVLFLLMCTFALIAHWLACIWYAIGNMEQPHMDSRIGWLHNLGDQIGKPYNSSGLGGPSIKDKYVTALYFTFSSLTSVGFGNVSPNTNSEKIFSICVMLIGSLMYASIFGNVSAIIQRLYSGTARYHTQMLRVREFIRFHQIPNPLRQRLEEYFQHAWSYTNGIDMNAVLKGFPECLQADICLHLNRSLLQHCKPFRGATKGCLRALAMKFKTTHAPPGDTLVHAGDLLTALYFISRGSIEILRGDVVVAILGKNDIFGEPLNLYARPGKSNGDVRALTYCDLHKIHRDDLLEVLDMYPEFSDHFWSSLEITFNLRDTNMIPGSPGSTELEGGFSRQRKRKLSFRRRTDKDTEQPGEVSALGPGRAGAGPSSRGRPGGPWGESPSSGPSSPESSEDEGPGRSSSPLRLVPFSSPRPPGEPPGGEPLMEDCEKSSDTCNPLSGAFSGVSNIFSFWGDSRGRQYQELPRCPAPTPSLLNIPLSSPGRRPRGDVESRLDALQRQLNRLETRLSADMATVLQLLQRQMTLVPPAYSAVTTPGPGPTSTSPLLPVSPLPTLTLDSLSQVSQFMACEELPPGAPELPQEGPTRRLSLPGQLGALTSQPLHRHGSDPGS

Compound | hERG current change (%, negative = inhibition) at 1uM [%]
CCn1c(SCC(=O)N2c3ccccc3Sc3ccccc32)nnc1-c1ccco1 | 5.06
O=C(Nc1ccccc1)N1CCCN(Cc2ccccc2F)C1 | 6.24
CCOC(=O)N(C)S(=O)(=O)c1ccccc1[N+](=O)[O-] | 5.45
O=C(COC(=O)c1ccc2c(c1Cl)C(=O)c1ccccc1C2=O)NC1CCCCC1 | 10.3
Cc1cccc(-n2c(N)cc(=O)nc2SCC(=O)Nc2cc(C)on2)c1 | 5.62
COc1ccc(C(=O)N/C(=C\c2cn(C)c3ccccc23)C(=O)OCCN(C)C)cc1 | 4.2
O=C(CCCn1cncn1)N1CCCC(Nc2ccc(F)cc2)C1 (stereo not shown) | 12.7
CC(O)CSc1nc2c(c(=O)n(C)c(=O)n2C)n1CCCc1ccccc1 (stereo not shown) | 2.29
Cc1ccc(C(=O)N/C(=C\c2ccco2)C(=O)NCCCn2ccnc2)cc1 | -64.1
CSc1sc(-c2n[nH]c(=S)n2C)c2c1C=CCC2 | 3.94
Cc1ccc(NC(=S)NC2CC3CCCC(C2)N3Cc2cccs2)cc1 (stereo not shown) | -18.2
CCC(=O)Nc1ccc(S(=O)(=O)Nc2c(C)nc3nc[nH]n3c2=O)cc1 | 8.32
CCCCN(C(=S)Nc1cccc(C)c1C)c1c(N)n(CCC)c(=O)[nH]c1=O | 7.35
O=C(CCCCCn1c(=S)[nH]c2cc3c(cc2c1=O)OCO3)N1CCN(C2CCCCC2)CC1 | 17.1
Cl.OC(COCc1ccccc1)CN1CCN(Cc2ccc3c(c2)OCO3)CC1 (stereo not shown) | -0.707
O=C(Cn1nnc2ccccc2c1=O)NCc1ccco1 | 5.88
O=C(C1CCCCC1)N(Cc1ccccc1)c1ccccn1 | 7.48
Cc1ccc(N(C)C(=O)Oc2cccc3ccc(C)nc23)cc1 | 2.54
CCCCNC(=S)N(C)/N=C/c1c(F)cccc1F | 5.85
COCCCNC(=O)C1CCC(CNS(=O)(=O)c2ccc(OC)cc2)CC1 (stereo not shown) | -0.359
COC(=O)CCC(=O)OC1(C)C(=O)C2=CN(c3ccc(OC)cc3)C(c3ccc(OC)cc3)=CC2=C(Br)C1=O (stereo not shown) | 2.02
CCC(=NCCc1ccccc1)C1=C(O)CCC1=O | 12.8

Compound | hERG current change (%, negative = inhibition) at 1uM [%]
CC(=O)N/C(=N\OCc1ccccc1Cl)c1nonc1NC(C)=O | -2.95
CCN(CC)S(=O)(=O)c1ccc(C(=O)NC(C)(C)C)cc1 | 11.4
CC(C)CN(C(=O)CN1C(=O)C2CCCCC2C1=O)c1c(N)n(Cc2ccccc2)c(=O)[nH]c1=O (stereo not shown) | 5.94
CCN(CC)C(=O)CN1C(=O)/C(=C/c2ccccc2)SC1=S | -2.29
O=S(=O)(c1ccc(-c2csc(-c3cccnc3)n2)cc1)N1CCCC1 | 3.52
CC(NCc1ccc(OCc2ccc(Cl)cc2)cc1)C(O)c1ccccc1.Cl (stereo not shown) | -31.1
O=C(C1=C(O)C(=O)N(Cc2cccnc2)C1c1ccccn1)c1cccs1 (stereo not shown) | 9.79
COc1ccccc1NC(=S)NCCc1ccc(OC)c(OC)c1 | 7.08
O=C(c1ccc(F)cc1)N1CCN(C(=O)c2ccc([N+](=O)[O-])cc2)CC1 | -13.7
COc1ccccc1-n1c(SCC(=O)N2CCOCC2)nc(O)c(Cc2ccccc2)c1=O | 18.4
O=C(/C=C(/c1ccc(Cl)cc1)n1cncn1)c1ccccc1 | 4.14
O=C(NCC1CCCO1)c1ccccc1NS(=O)(=O)c1ccc(F)cc1 (stereo not shown) | 11.3
COc1ccc(-c2[nH]ncc2Oc2ccccc2OC)c(O)c1 | -4.43
CCN(C(=O)CN1C(=O)S/C(=C\C=C\c2ccccc2)C1=O)C1CCS(=O)(=O)C1 (stereo not shown) | 18.2
CN(C)S(=O)(=O)c1cc(NC(=O)COC(=O)c2ccc3c(c2)OCO3)ccc1Cl | 12.2
CC(/C=C/C1[C@H](C)C[C@H](O[C@@H]2O[C@H](CO)[C@@H](O)[C@H](O)[C@H]2O)CC1(C)C)O[C@H]1O[C@H](CO)[C@@H](O)[C@H](O)[C@H]1O (stereo partly shown) | 10.3
O=[N+]([O-])c1cc([N+](=O)[O-])c(Oc2cc(F)cc(F)c2F)cc1NN1CCCCC1 | 8.95
COc1ccc(NC(=O)Nc2cccc(NC(C)=O)c2)c(OC)c1 | 17.6
CCOC(=O)[C@H]1[C@H]2COc3cc(OC)ccc3[C@@H]2N2C(=O)N(c3ccc(Br)cc3)C(=O)[C@@]12C | 10.4
O=C(COc1ccc(S(=O)(=O)N2CCOCC2)cc1Cl)NCc1ccco1 | 11
O=C(COC(=O)c1ccccc1[N+](=O)[O-])Nc1cc(S(=O)(=O)N2CCOCC2)ccc1N1CCCC1 | 6.67
